From the supplement of paper PMC10369915
Some of the results follow. Rule as the data show it: active = 3.2 or more and inactive = the rest. Most of these values are background signal.

B1: EIF3J_Y143 (peptide)
chain: VNNAVYGIDAM
B2: EIF2AK3_Y585_R588Q (peptide)
chain: IKNSGYISQYL
B3: ENG_Y614_S615L_YF (peptide)
chain: ALWFIYLHTRS
B4: EPHA3_Y570_C568S (peptide)
chain: GRFSGYKSKHG
B5: EIF4G1_Y311_Y311C (peptide)
chain: ETGEPCRLSPE
B6: EMD_Y59_S54F (peptide)
chain: FAASSYSFSDL
B7: EP300_Y2219_P2221Q (peptide)
chain: PQGVGYPQQQQ
B8: ENTPD3_Y262_R264Q (peptide)
chain: HSFQCYGQNEA
B9: ENG_Y614_YF (peptide)
chain: ALWFIYSHTRS
B10: EMD_Y182_P183H_YF (peptide)
chain: LDLSFYHTSSS
B11: EPHA3_Y561 (peptide)
chain: LTVVIYVLIGR
B12: EMD_Y59 (peptide)
chain: SAASSYSFSDL
B13: EIF3A_Y382_E386K (peptide)
chain: FNVLQYVVPKV
B14: EMR1_Y534_I533V (peptide)
chain: SDPIVYTLENI
B15: ENPP1_Y280 (peptide)
chain: IDNKMYDPKMN
B16: EML2_Y230 (peptide)
chain: GKSHIYFWTLE
B17: ENO1_Y236 (peptide)
chain: IGKAGYTDKVV
B18: EMD_Y181_P183H_YF (peptide)
chain: SLDLSYFHTSS
B19: ELMOD3_Y61 (peptide)
chain: LTTEAYEWEPR
B20: EIF2AK3_Y585_YF (peptide)
chain: IKNSGYISRFL
B21: EIF4G1_Y311 (peptide)
chain: ETGEPYRLSPE
B22: ENG_Y612_S615L_YF (peptide)
chain: TAALWYIFLHT
B23: EIF2B4_Y214 (peptide)
chain: RLGLQYSQGLV
B24: ENO1_Y236_V240M (peptide)
chain: IGKAGYTDKMV
B25: EIF2S2_Y176_YF (peptide)
chain: ERDFTYEELLN
B26: EMD_Y181 (peptide)
chain: SLDLSYYPTSS
B27: EIF2S2_Y176 (peptide)
chain: ERDYTYEELLN
B28: ENG_Y612_YF (peptide)
chain: TAALWYIFSHT
B29: ELP5_Y302_D303Y_YF (peptide)
chain: FEPDAYFDLDQ
B30: EIF3K_Y21_I18V (peptide)
chain: KGVDRYNPENL
B31: EP300_Y2219_Q2223P (peptide)
chain: PQGVGYPPQPQ
B32: ENG_Y614_S615L (peptide)
chain: ALWYIYLHTRS
B33: EIF2B5_Y583_I587V_YF (peptide)
chain: INSLKYAFNVS
B34: EIF2B5_Y319_R315H (peptide)
chain: IHRWVYPLTPE
B35: EPHA10_Y959_A956T (peptide)
chain: FATAGYGSLEA
B36: EMD_Y182 (peptide)
chain: LDLSYYPTSSS
B37: EPHA3_Y570 (peptide)
chain: GRFCGYKSKHG

Biological target: SHP2 C-SH2 domain E139D
Experiment: enrichment score (SH2-bound / input frequency) (ratio); bacterial display of known human phosphotyrosine sites (pTyr-Var adds point mutants) read by sequencing; higher = stronger binding; tyrosines were phosphorylated by kinases first
Settings: peptide library: pTyr-Var
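Also: displayed peptides selected on beads carrying the immobilized SH2 domain, with library peptides lacking any tyrosine serving as negative controls.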

Row | Binder | enrichment score
1 | B1 | inactive: 0.825
2 | B2 | inactive: 1.09
3 | B3 | inactive: 0.696
4 | B4 | inactive: 1.08
5 | B5 | inactive: 0.768
6 | B6 | inactive: 1.09
7 | B7 | inactive: 0.462
8 | B8 | inactive: 0.567
9 | B9 | inactive: 1.3
10 | B10 | inactive: 1.95
11 | B11 | inactive: 0.47
12 | B12 | inactive: 0.487
13 | B13 | inactive: 1.48
14 | B14 | inactive: 0.679
15 | B15 | inactive: 0.724
16 | B16 | inactive: 0.951
17 | B17 | inactive: 0.712
18 | B18 | inactive: 1.41
19 | B19 | inactive: 1.11

Row | Binder | enrichment score
20 | B20 | inactive: 1.39
21 | B21 | inactive: 0.478
22 | B22 | inactive: 1.64
23 | B23 | inactive: 1.18
24 | B24 | inactive: 0.675
25 | B25 | inactive: 0.573
26 | B26 | inactive: 1.07
27 | B27 | inactive: 0.741
28 | B28 | inactive: 1.78
29 | B29 | inactive: 0.639
30 | B30 | inactive: 0.55
31 | B31 | inactive: 0.765
32 | B32 | inactive: 0.739
33 | B33 | inactive: 1.33
34 | B34 | inactive: 2.64
35 | B35 | inactive: 0.743
36 | B36 | inactive: 1.47
37 | B37 | inactive: 2.51

Biological target: SHP2 C-SH2 domain wild-type
Experiment: as above
Settings: peptide library: pTyr-Var

Row | Binder | enrichment score
38 | B1 | inactive: 0.697
39 | B2 | inactive: 1.18
40 | B3 | inactive: 0.716
41 | B4 | inactive: 0.789
42 | B5 | inactive: 0.658
43 | B6 | inactive: 0.969
44 | B7 | inactive: 0.561
45 | B8 | inactive: 0.756
46 | B9 | inactive: 1.5
47 | B10 | inactive: 1.23
48 | B11 | inactive: 0.443
49 | B12 | inactive: 0.77
50 | B13 | inactive: 1.92
51 | B14 | inactive: 0.663
52 | B15 | inactive: 0.767
53 | B16 | inactive: 0.89
54 | B17 | inactive: 0.813
55 | B18 | inactive: 0.975
56 | B19 | inactive: 0.782

Row | Binder | enrichment score
57 | B20 | inactive: 1.37
58 | B21 | inactive: 0.568
59 | B22 | inactive: 1.81
60 | B23 | inactive: 1.19
61 | B24 | inactive: 0.801
62 | B25 | inactive: 0.52
63 | B26 | inactive: 0.933
64 | B27 | inactive: 0.652
65 | B28 | inactive: 1.46
66 | B29 | inactive: 0.691
67 | B30 | inactive: 0.579
68 | B31 | inactive: 0.737
69 | B32 | inactive: 0.792
70 | B33 | inactive: 0.825
71 | B34 | inactive: 2.18
72 | B35 | inactive: 0.653
73 | B36 | inactive: 0.869
74 | B37 | inactive: 1.59

Biological target: SHP2 N-SH2 domain L43F
Experiment: as above
Settings: peptide library: pTyr-Var

Row | Binder | enrichment score
75 | B1 | inactive: 0.76
76 | B2 | inactive: 0.981
77 | B3 | inactive: 0.746
78 | B4 | inactive: 0.672
79 | B5 | inactive: 0.621
80 | B6 | inactive: 1.24
81 | B7 | inactive: 0.902
82 | B8 | inactive: 0.946
83 | B9 | inactive: 1.55
84 | B10 | inactive: 1.36
85 | B11 | inactive: 0.278
86 | B12 | inactive: 0.594
87 | B13 | active: 5.07
88 | B14 | inactive: 0.648
89 | B15 | inactive: 0.551
90 | B16 | inactive: 0.762
91 | B17 | inactive: 0.856
92 | B18 | inactive: 1.16
93 | B19 | inactive: 1.03

Row | Binder | enrichment score
94 | B20 | inactive: 1.26
95 | B21 | inactive: 0.608
96 | B22 | inactive: 1.75
97 | B23 | inactive: 1.26
98 | B24 | inactive: 0.64
99 | B25 | inactive: 0.426
100 | B26 | inactive: 0.89
101 | B27 | inactive: 0.668
102 | B28 | inactive: 1.43
103 | B29 | inactive: 0.671
104 | B30 | inactive: 0.466
105 | B31 | inactive: 0.7
106 | B32 | inactive: 0.631
107 | B33 | inactive: 1.02
108 | B34 | inactive: 2.66
109 | B35 | inactive: 0.691
110 | B36 | inactive: 1.2
111 | B37 | inactive: 2.13

Biological target: SHP2 N-SH2 domain T42A
Experiment: as above
Settings: peptide library: pTyr-Var

Row | Binder | enrichment score
112 | B1 | inactive: 0.591
113 | B2 | inactive: 0.82
114 | B3 | inactive: 0.729
115 | B4 | inactive: 0.667
116 | B5 | inactive: 0.555
117 | B6 | inactive: 0.823
118 | B7 | inactive: 0.541
119 | B8 | inactive: 0.789
120 | B9 | inactive: 1.51
121 | B10 | inactive: 1.52
122 | B11 | inactive: 0.256
123 | B12 | inactive: 0.623
124 | B13 | active: 6.07
125 | B14 | inactive: 0.749
126 | B15 | inactive: 0.66
127 | B16 | inactive: 0.663
128 | B17 | inactive: 0.699
129 | B18 | inactive: 1.05
130 | B19 | inactive: 0.755

Row | Binder | enrichment score
131 | B20 | inactive: 1.22
132 | B21 | inactive: 0.428
133 | B22 | inactive: 1.42
134 | B23 | inactive: 1.1
135 | B24 | inactive: 0.575
136 | B25 | inactive: 0.556
137 | B26 | inactive: 0.794
138 | B27 | inactive: 0.627
139 | B28 | inactive: 1.4
140 | B29 | inactive: 0.582
141 | B30 | inactive: 0.476
142 | B31 | inactive: 0.571
143 | B32 | inactive: 0.622
144 | B33 | inactive: 1.5
145 | B34 | inactive: 2.31
146 | B35 | inactive: 0.78
147 | B36 | inactive: 1.28
148 | B37 | inactive: 1.66

Biological target: SHP2 N-SH2 domain T52S
Experiment: as above
Settings: peptide library: pTyr-Var

Row | Binder | enrichment score
149 | B1 | inactive: 0.779
150 | B2 | inactive: 1.02
151 | B3 | inactive: 0.6
152 | B4 | inactive: 0.603
153 | B5 | inactive: 0.573
154 | B6 | inactive: 1.12
155 | B7 | inactive: 0.562
156 | B8 | inactive: 0.919
157 | B9 | inactive: 1.45
158 | B10 | inactive: 1.4
159 | B11 | inactive: 0.408
160 | B12 | inactive: 0.529
161 | B13 | active: 7
162 | B14 | inactive: 0.957
163 | B15 | inactive: 0.584
164 | B16 | inactive: 0.857
165 | B17 | inactive: 0.847
166 | B18 | inactive: 1.22
167 | B19 | inactive: 0.893

Row | Binder | enrichment score
168 | B20 | inactive: 1.23
169 | B21 | inactive: 0.47
170 | B22 | inactive: 1.57
171 | B23 | inactive: 0.99
172 | B24 | inactive: 0.739
173 | B25 | inactive: 0.559
174 | B26 | inactive: 0.974
175 | B27 | inactive: 0.693
176 | B28 | inactive: 1.36
177 | B29 | inactive: 0.604
178 | B30 | inactive: 0.402
179 | B31 | inactive: 0.659
180 | B32 | inactive: 0.782
181 | B33 | inactive: 1.45
182 | B34 | inactive: 2.25
183 | B35 | inactive: 0.676
184 | B36 | inactive: 1.76
185 | B37 | inactive: 2.15

Biological target: SHP2 N-SH2 domain wild-type
Experiment: as above
Settings: peptide library: pTyr-Var

Row | Binder | enrichment score
186 | B1 | inactive: 0.702
187 | B2 | inactive: 1.08
188 | B3 | inactive: 0.781
189 | B4 | inactive: 0.77
190 | B5 | inactive: 0.759
191 | B6 | inactive: 1.19
192 | B7 | inactive: 0.594
193 | B8 | inactive: 1.19
194 | B9 | inactive: 1.68
195 | B10 | inactive: 1.58
196 | B11 | inactive: 0.301
197 | B12 | inactive: 0.933
198 | B13 | inactive: 2.12
199 | B14 | inactive: 0.848
200 | B15 | inactive: 0.846
201 | B16 | inactive: 1.12
202 | B17 | inactive: 0.97
203 | B18 | inactive: 0.954
204 | B19 | inactive: 0.929

Row | Binder | enrichment score
205 | B20 | inactive: 1.31
206 | B21 | inactive: 0.685
207 | B22 | inactive: 1.8
208 | B23 | inactive: 0.962
209 | B24 | inactive: 0.965
210 | B25 | inactive: 0.546
211 | B26 | inactive: 1.02
212 | B27 | inactive: 0.861
213 | B28 | inactive: 1.6
214 | B29 | inactive: 0.864
215 | B30 | inactive: 0.736
216 | B31 | inactive: 0.827
217 | B32 | inactive: 0.912
218 | B33 | inactive: 0.731
219 | B34 | inactive: 2.22
220 | B35 | inactive: 0.713
221 | B36 | inactive: 0.899
222 | B37 | inactive: 2.01
